ChEMBL document CHEMBL4888484, “Replenishing the malaria drug discovery pipeline: Screening and hit evaluation of the MMV Hit Generation Library 1 (HGL1) against asexual blood stage Plasmodium falciparum ,using a nano luciferase reporter read-out” (2022)
The campaign covered roughly 150,000 compounds. About 540 (0.36%) showed an effect of 50% or more. The list shows a part of the results.

System: Plasmodium falciparum
Assay: Primary screen in NF54 nanoGlo assay, in single point, at 2uM, 72h; a lower Z score goes with more inhibition
Assay type: functional, Erythrocyte
Conditions: timepoint 72 hour

| Compound | % Inhibition | Z score |
| --- | --- | --- |
| COc1ccc(-c2nn(-c3ccccc3F)cc2CN2C[C@H]3CC[C@H]2C3)cc1 | -10% | 1.35 |
| O=C(NCc1cc(F)cc(F)c1)c1nn(-c2ccccc2)c2ccccc2c1=O | -5% | 0.63 |
| CCC[C@@H](C#N)NC(=O)c1sc(-c2cnn(C)c2)nc1C | -4% | 0.51 |
| CCC(=O)N(C)[C@@H](Cc1ccc(F)cc1F)C1CCN(C(=O)c2cccc(N3CCCC3=O)c2)CC1 | 1% | -0.25 |
| CCc1nn(C)cc1NC(=O)NCc1cc(C)nc(N)c1 | -6% | 0.65 |
| CCO[C@H]1CN(C)C[C@@H]1NC(=O)c1cccnc1NC | 2% | -0.28 |
| Cc1ccc([C@H](O)c2ccccn2)cc1NC(=O)C1(C)CCC1 | 5% | -1.02 |
| O=C1CN(CCn2cnnc2)CCN1Cc1ccccc1F | -4% | 0.62 |
| Cc1ccc(-c2noc(-c3cccc(S(=O)(=O)Nc4ccccn4)c3)n2)cc1 | 5% | -0.67 |
| Cc1ccc(CN2CCc3c(cc(C(=O)N(C)Cc4ccccc4)n3C)C2)cc1 | -4% | 0.76 |
| O=C(CNc1ccc(F)cn1)NCC(F)(F)F | 5% | -0.91 |
| CCOc1cc(C(=O)N(C)Cc2ccc(F)cc2F)ccc1OCc1cccnc1 | 5% | -0.66 |
| COc1ccc(NC(=O)CCc2ccc3ccn(C)c3c2)cc1 | 5% | -0.61 |
| CCCn1cnnc1Cn1ccnc1-c1c(C)sc2ccccc12 | 7% | -1.38 |
| CNCCCOc1ccccc1-c1ccc2c(c1)OCO2 | 19% | -2.45 |
| CCS(=O)(=O)c1ccccc1N(C)CCn1cccn1 | -1% | 0.15 |
| c1ccc(Oc2nc(-c3ccccc3)cc(-c3ccccc3)n2)cc1 | 7% | -1.33 |
| CC(C)Cn1c(-c2cccc(C(=O)NCCN3CCCC3)c2)nc2cccnc21 | 8% | -1 |
| COc1cccc(CNCCc2c[nH]c3ccccc23)c1OCc1ccccc1F | -9% | 1.47 |
| CCNc1ncc(-c2nc(CCOC)nn2CC(F)(F)F)cn1 | -7% | 1.3 |
| CCS(=O)(=O)N1C[C@@H]2CN(C(=O)CCn3nc(C)cc3C)C[C@]2(c2nc(C)no2)C1 | -13% | 1.8 |
| Cc1[nH]c2ccccc2c1C(=O)N1CCC[C@@]2(CCN(C)C2)C1 | -7% | 1.48 |
| CC1CC(C)CN(S(=O)(=O)NCCOCC2CCOC2)C1 (stereo not drawn) | -11% | 0.92 |
| Cc1nn(C)c(C)c1OCc1nnc(C2CCC2)n1C | 39% | -5.65 |
| Cc1ccc(NC(=O)COC(=O)c2nccc3ccccc23)cc1 | 34% | -4.58 |
| CN(CCCN1CCOCC1)c1nnc(-c2ccccc2)s1 | -2% | 0.32 |
| Cc1ccc([C@H]2c3cc(OCc4nc(C(=O)NCc5ccccc5)co4)ccc3CCN2C(=O)CC(C)C)cc1 | -3% | 0.51 |

| Compound | % Inhibition | Z score |
| --- | --- | --- |
| CCCc1cc(=O)n(-c2ccc(C(=O)NC[C@H]3CCCCN3CC)cc2)[nH]1 | -6% | 0.83 |
| CCC[C@@]1(C2CCN(C(=O)c3cccnc3OC)CC2)NC(=O)N(CCc2cccs2)C1=O | 8% | -1.05 |
| Cc1nc(C#N)c(C#N)n1Cc1nc2ccccc2n1C | -2% | 0.22 |
| CC[C@H]1CC[C@H](C(=O)Nc2ccc(Oc3nnn[nH]3)cc2)CC1 | -5% | 0.46 |
| O=C(NCCCc1ccccc1)[C@H]1CCCN(c2nc3ccc(Br)cc3[nH]2)C1 | -2% | 0.42 |
| C[C@@](O)(CNS(C)(=O)=O)Cc1ccco1 | 5% | -0.69 |
| CN1CC(C(=O)N2CCCC3CCCC32)CC1=O (stereo not drawn) | -7% | 0.6 |
| CC(C)[C@H](NC(=O)N1CC(=O)N(C2CC2)C1)C(F)(F)F | -8% | 1.46 |
| CC(C)COC[C@@H](O)CN(Cc1c(-c2ccccc2)noc1N1CCOCC1)CC1CC1 | -7% | 1.07 |
| CC(C)(C)OC(=O)ON1C(=O)CCC1=O | -6% | 0.66 |
| CCC1(CO)CCN(c2ccnc(C(=O)NCc3ccccn3)c2)CC1 | 17% | -2.26 |
| Cc1c(Cl)c(C(=O)NC[C@H]2CCC[C@@H](CO)C2)nn1C | 2% | -0.29 |
| CCCc1cncnc1N1C[C@@H]2CN(C3CCCC3)C[C@]2(C(=O)O)C1 | -11% | 2.18 |
| CCC1(CC)CCN(C(=O)c2nnc(COC)o2)C1 | 4% | -0.54 |
| O[C@@](C#CCN1CCCCCC1)(c1ccccc1)c1cccnc1 | -12% | 1.42 |
| Cc1nc(CNc2ccc(Br)cc2OC(F)F)no1 | -7% | 1 |
| N#COc1ccc(C2(c3ccc(OC#N)cc3)c3ccccc3-c3ccccc32)cc1 | -17% | 2.77 |
| O=C1CN(C(=O)c2cccc3c2CCOC3)Cc2ccccc2N1 | -11% | 1.51 |
| CCn1cc(CN2CCC(Oc3ccc4ccccc4c3)(C(=O)O)CC2)c(C)n1 | -13% | 1.87 |
| CC(C)(C)c1ccc(C(=O)N2CC[C@H](Oc3ncc(Cl)cn3)C2)cc1 | 2% | -0.28 |
| COc1cccc(C2C(NC(=O)CC3CCOC3)CCN2C2CC2)c1 (stereo not drawn) | -9% | 1.19 |
| CCOc1ccc(N(CC)S(=O)(=O)N2CCC[C@H](C(=O)NCCc3c[nH]c4ccccc34)C2)cc1 | -3% | 0.28 |
| CC(NCCC(=O)NCc1ccccc1Cl)C(C)n1cccn1 (stereo not drawn) | -8% | 1.09 |
| CCN(CC)C[C@H](O)COc1ccc(CN(C)Cc2ccncn2)cc1OC | -7% | 0.96 |
| C#CCOC[C@@H](O)CN(Cc1ccc(F)cc1F)C(C)C | 5% | -0.52 |
| C[C@H](NC(=O)C1CC1c1ccccc1)[C@H](O)c1ccc2c(c1)OCO2 (stereo partly drawn) | 38% | -1.25 |
| COc1ccc(CN(CCc2c[nH]c3ccccc23)C(=O)CN(CC(C)C)C(=O)Nc2c(Cl)cccc2Cl)cc1OC | -6% | 0.93 |
